In PubChem BioAssay AID1159614 (National Center for Advancing Translational Sciences (NCATS), 2016):
In all, about 45,000 compounds went through this assay and about 65 (0.1%) were called active. The call rests on the fitted dose curve; in most records, active means well fitted activation curve with a large enough effect; inconclusive means small, poorly fitted or top-dose-only effect; inactive means no such curve, though single readings can be large or run the other way. The list shows a part of the results.

The molecules below were run against Galactocerebrosidase (Homo sapiens) (UniProt P54803) (assay: A Novel Cell-Based Assay to Identify Small Molecules for B -Galactocerebrosidase). Conditions: 145M-Twi-hGALC-G270D cells (Twitcher mouse brain line with human GALC G270D), HMU-beta-Gal fluorescence, 48 h; series mostly up to 57.5 µM; activation: at the top concentration.
UniProt P54803, sequence (P54803 whole entry, looked up): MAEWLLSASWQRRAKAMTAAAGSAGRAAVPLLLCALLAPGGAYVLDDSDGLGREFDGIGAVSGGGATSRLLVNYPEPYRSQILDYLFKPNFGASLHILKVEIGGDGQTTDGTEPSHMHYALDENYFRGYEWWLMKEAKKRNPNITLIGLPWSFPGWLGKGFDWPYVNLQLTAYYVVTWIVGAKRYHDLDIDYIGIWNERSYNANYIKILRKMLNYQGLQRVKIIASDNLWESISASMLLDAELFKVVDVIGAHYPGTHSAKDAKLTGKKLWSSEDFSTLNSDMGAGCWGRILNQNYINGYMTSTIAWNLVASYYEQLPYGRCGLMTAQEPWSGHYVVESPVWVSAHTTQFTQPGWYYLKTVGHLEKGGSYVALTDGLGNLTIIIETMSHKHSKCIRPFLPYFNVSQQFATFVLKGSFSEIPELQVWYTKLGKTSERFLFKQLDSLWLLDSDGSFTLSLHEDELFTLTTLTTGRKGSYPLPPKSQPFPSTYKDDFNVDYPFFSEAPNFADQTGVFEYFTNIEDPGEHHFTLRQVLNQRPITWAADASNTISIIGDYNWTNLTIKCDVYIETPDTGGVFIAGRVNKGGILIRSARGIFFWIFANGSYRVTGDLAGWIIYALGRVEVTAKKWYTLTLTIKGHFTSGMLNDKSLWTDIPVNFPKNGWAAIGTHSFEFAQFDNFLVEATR
How it was run: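 Fluorescence readout: HMU-β-gal cleavage by mutant GALC (0.1 mM final, citrate/phosphate pH 5.2 with 1 mg/mL taurocholate), stopped with carbonate/bicarbonate plus Triton X-100. Cells: murine Twitcher 145M-Twi expressing human G270D GALC; qHTS for activators.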
Further: 0% is about no effect; nearly all actives have a fitted effect of over 65% in size.

activation, inactive:
Cc1cccc(-c2noc(CNC(=O)c3ccc(C)cc3C)n2)c1 5.72%
CCOc1ccc(S(=O)(=O)c2cn(Cc3ccc(C)cc3)c3ccc(OC)cc3c2=O)cc1 -5.59%
CCOc1ccc2cc(-c3nnc(Nc4ccccc4F)s3)c(=O)oc2c1 -9.44%
Cc1ccc(CNC(=O)COCc2cc(-c3ccc4c(c3)OCO4)on2)cc1 -1.03%
CC(=O)Oc1c(C)c(C)c2c(c1C)CC[C@@](C)(CCC[C@H](C)CCC[C@H](C)CCCC(C)C)O2 -31.2%
O=C(NCc1cccc(Br)c1)c1ccc(-n2cnc3cccnc32)cc1 -18.6%
Cc1ccc(-c2cnc(NCc3ccc(C(C)C)cc3)n2C)cc1 -26.8%
COc1ccc(NCc2nc3ccccc3n2CCOc2ccc(C)cc2)cc1 -13.1%
Cc1ccc(Cl)cc1N1CCN(C(=O)c2cn(C)c3ccc(S(=O)(=O)N4CCC(C)CC4)cc3c2=O)CC1 -17.5%
CCCOc1ccc(C(=O)N(Cc2cccs2)C2CCS(=O)(=O)C2)cc1 (configuration not stated) 1.41%
O=C(NCC(c1ccc(Cl)cc1)N1CCCCC1)c1ccccc1 (configuration not stated) -7.04%
Cc1cc(Cl)ccc1NC(=O)C1CCN(S(=O)(=O)c2ccc3[nH]c(=O)ccc3c2)CC1 -20.8%
COc1cccc(NC(=O)c2sc3nc(C)c(C(=O)Nc4ccc(C)cc4C)c(-c4ccc(Br)cc4)c3c2N)c1 -12.3%
COc1ccc(CNC(=O)c2cc3sccc3n2C)cc1 -10.1%
Cc1ccc2nc(SC(Cc3cc(Cl)ccc3Cl)C(=O)O)[nH]c2c1 (configuration not stated) -15.8%
Cc1ccc(C)c(N2CCN(C(=O)C3CCN(Cc4nc(-c5cccc(Cl)c5)oc4C)CC3)CC2)c1 3.56%
NC(=O)C1(N2CCCCC2)CCN(C(=O)Nc2ccc(Cl)c(Cl)c2)CC1 -13.9%
O=C(CCOc1ccccc1)N(Cc1cccnc1)c1nc2c(Cl)cccc2s1 -2.1%
CCOC(=O)c1cc(-c2ccccc2)nn1Cc1ccccc1 -12.7%
Cc1ccc(C2c3[nH]c4ccccc4c3CCN2C(=O)c2ccc(N(C)C)cc2)cc1 (configuration not stated) -13.7%
Cc1ccc(CCNC(=O)CCSCc2ccccc2F)cc1 -1.37%
Cc1cccc(Cn2c(=O)n(CCc3ccccc3)c(=O)c3sc4ccccc4c32)c1 -12.3%
CC(C)NC(=O)c1cnc2sc(N3CCCCCC3)nn2c1=O -5.7%
COc1ccc(CN(C(=O)Nc2ccccc2)c2ccccn2)cc1OC -22.4%
CCOC(=O)c1c(C)[nH]c(CCC(=O)Nc2ccc(N(CC)CC)cc2C)c1C -35.1%
Cc1ccc2oc(C(=O)Nc3c(C(=O)c4ccc(C)c(F)c4)oc4ccccc34)cc(=O)c2c1 -14.6%
O=S(=O)(Nc1c(F)cccc1F)c1ccc2c(c1)OCCO2 -19.9%
CCOC(=O)N1CCc2c(sc3c2c(=O)n(Cc2ccccc2)c(=O)n3CC(=O)Nc2ccccc2F)C1 4.18%
CCn1nnc2cc(C(=O)Nc3cccc(C(F)(F)F)c3)ccc21 -13.3%
COc1ccc(C)cc1NC(=O)C(CCSC)NS(=O)(=O)c1ccc2c(c1)oc(=O)n2C (configuration not stated) 13.6%
Cc1ccc(S(=O)(=O)N(Cc2nc(-c3ccc(Cl)cc3)no2)C2CCCCC2)cc1 -3.06%
COc1ccc(-c2noc(-c3ccc(N4CCOCC4)c([N+](=O)[O-])c3)n2)cc1OC -15.8%
CCOCCCNC(=O)N1CCN(S(=O)(=O)c2ccc3c(ccn3C)c2)CC1 -9.48%
COc1ccccc1N1CCN(CCC(=O)Nc2cccc(F)c2)CC1 0.0877%
CCOc1ccc(CNC(=O)c2cnc(SC)nc2CC)cc1 -6.75%
O=C(Cn1c(=O)n(-c2ccccc2)c(=O)c2ccc(C(=O)NCc3ccc4c(c3)OCO4)cc21)Nc1ccc(Br)cc1F -13.2%
CCOc1ccc(NC(=O)CSc2oc(-c3cccs3)nc2S(=O)(=O)c2ccc(Cl)cc2)cc1 -17%
CCCCSCCCNC(=O)CN1C(=O)COc2ccc(S(=O)(=O)N3CCCC3)cc21 -10.8%
COc1ccc(CNc2nc(-c3ccc(OC)c(OC)c3)cc(C(F)(F)F)n2)cc1 -9.38%
COc1cccc(/C=C(\C#N)c2nc3ccc(C)cc3[nH]2)c1 -11.1%
Cn1c(=O)c2c(SCC(=O)NCC3CCCO3)nc(-c3ccccc3F)nc2n(C)c1=O (configuration not stated) -13.2%
CCOC(=O)c1ccc(NS(=O)(=O)c2cc3c(cc2C)n(C)c(=O)c(=O)n3C)cc1 -7%
CCCSc1ncc(Cl)c(C(=O)Nc2ccc(CC)cc2)n1 -9.33%
Oc1cccc(Nc2nc(-c3ccccc3)nc3ccccc23)c1 -15.3%
CCN(CCCNC(=O)c1cc2cc3cc(OC)ccc3nc2s1)c1ccccc1 -12.5%
Cc1ccc(CNC(=O)CSc2nc3ccsc3c(=O)n2-c2ccc(C(=O)O)cc2)cc1 -6.58%
Cc1cc(NC(=O)c2ccc(Cl)c(Cl)c2)ccc1-c1cc2ccccc2oc1=O -15.3%
COc1ccc(NC(=O)Cn2c(=O)n(-c3ccccc3)c(=O)c3ccc(C(=O)NCc4ccc5c(c4)OCO5)cc32)cc1 2.27%
CCOC(=O)C1CCC(CN(Cc2c(Cl)cccc2Cl)S(=O)(=O)c2ccc(F)c(C)c2)CC1 (configuration not stated) -7.93%
CCOC(=O)c1c(C)[nH]c(C)c1S(=O)(=O)N(C)CC(=O)Nc1cc(Cl)ccc1OC -8.68%
COc1cccc(NC(=O)CCNS(=O)(=O)c2ccc3c(c2)CCCC(=O)N3)c1 -16.5%
O=C(CSC1=Nc2ccccc2C2=NC(CCC(=O)NC3CCCCC3)C(=O)N12)Nc1cccc(Cl)c1 (configuration not stated) -24.4%
COc1ccc(-c2cnc(NCc3ccc(C)cc3)n2C)cc1 9.23%
O=C(CSc1nc(-c2ccccc2)cc(=O)[nH]1)Nc1ccccc1F -26.1%
CC1=C(C(=O)Nc2ccc(C)c(C)c2)C2(CCCCCC2)OC1=O 0.362%
Cc1ccc2[nH]c(=O)c3cc(C(=O)N4CCN(c5ccccc5F)CC4)sc3c2c1 -8.88%
COc1cc(C2NC(=O)N(C)C3=C2C(=O)N(c2ccccc2)C3)ccc1O (configuration not stated) -12.1%
CCC(C)NC(=O)c1sc2nc(C)c(C(=O)Nc3ccc(C)cc3C)c(-c3ccc(Br)cc3)c2c1N (configuration not stated) -12.2%
COc1ccccc1NC(=O)CSc1oc(-c2cccs2)nc1S(=O)(=O)c1ccc(C)cc1 -26.5%
CCN(CC)c1nc2c(S(=O)(=O)c3ccc(C)cc3)nnn2c2ccsc12 -0.934%
O=C(NCc1ccccc1)c1cccc(NC(=O)N2CCSc3ncccc32)c1 -9.3%
COc1ccccc1CNC(=O)c1nn(-c2ccc(C)cc2)c(=O)c2c1c1ccccc1n2C -9.3%
COc1ccc(CCNC(=O)CSc2nc3ccccc3nc2Cc2ccc(C)cc2)cc1OC 3.32%
Cc1cccc(CSc2ncc(Cl)c(C(=O)Nc3sc4c(c3C#N)CCCC4)n2)c1 5.96%
Cc1ccccc1NC(=O)c1ccccc1NC(=O)c1ccccc1F -8.17%
COc1ccc(-c2nc3ccc(C(=O)NCc4ccccc4)cc3nc2-c2ccc(OC)cc2)cc1 -0.389%
O=C(CN1C(=O)COc2ccc(S(=O)(=O)N3CCCCC3)cc21)NCCc1ccc(Cl)cc1 -13.2%
CCCSc1nnc2c(n1)OC(CC)N(C(C)=O)c1ccccc1-2 (configuration not stated) -12.9%
CCn1ccc2cc(S(=O)(=O)N3CCC(C(=O)NCc4ccc(OC(C)C)cc4)CC3)ccc21 -5.69%
O=C(Nc1nnc(S(=O)(=O)N2CCCC2)s1)c1ccccc1Cl -13.8%
COc1ccc(N2CCN(S(=O)(=O)c3c(C)nc4sc(C)cn4c3=O)CC2)cc1 -1.87%
Cc1cccc(OCC(=O)NCc2ccc3c(c2)CCN3C(=O)c2ccccc2)c1 -5.54%
COc1ccc(Cc2nc3c4cnn(-c5ccccc5Br)c4ncn3n2)cc1 -11.7%
CC1=C(c2ccc(C)c(C)c2)S(=O)(=O)N(Cc2ccc(C(=O)NCc3ccc(C)cc3)cc2)C1=O -19%
CCOc1ccccc1CNC(=O)Cn1nc(C)c2nn(-c3ccc(Cl)cc3)c(C)c2c1=O -4.87%
COC(=O)COc1ccc(Oc2nc(NC(C)(C)C)nc(N3CCOCC3)n2)nn1 -0.237%
Cc1c(C(=O)NCc2ccc(F)cc2)sc2nc3n(c(=O)c12)CCC3 -19.8%
COc1ccc(-c2ccc(=O)n(CC(=O)Nc3ccc(N(C)C)cc3)n2)cc1 5.11%
O=C(Cn1nc(C(F)(F)F)c2c1CCCC2)Nc1ccc(F)c(Cl)c1 -3.88%
O=C(Cn1c(=O)oc2cc(S(=O)(=O)NCc3ccccc3)ccc21)NCc1ccc(F)cc1 -15.4%
COc1ccc(/C=C/C(=O)Nc2ccc(Cl)c(Cl)c2)cc1OC -5.29%
CCOc1ccc(NC(=O)c2cc(CN3CCCC3)on2)cc1 -7.53%
COc1ccc(OC)c(NC(=O)Cn2cc(C(=O)c3cccs3)c3ccccc32)c1 -23.1%
CSc1ccc(C2c3c(oc4ccc(F)cc4c3=O)C(=O)N2c2ccc(C)cn2)cc1 (configuration not stated) -15.5%
CCOc1ccc2oc(=O)cc(CN3CCN(C(=O)c4ccc(Cl)cc4)CC3)c2c1 4.41%
CCCCc1nn2c(=O)cc(COC(=O)CNC(=O)c3ccccc3C)nc2s1 12.2%
Cc1cccc(N(C)C(=O)C2CCN(S(=O)(=O)c3cccc4nonc34)CC2)c1 -7.45%
Cc1ccc2nc(Nc3ccc(Br)cc3)nc(-c3ccccc3)c2c1 -9.76%
Cc1c(NC(=O)c2cc3ccccc3o2)cccc1-c1nc2ccccc2o1 -12.4%
CCc1cccc(CC)c1NC(=O)Cc1csc(C)n1 -4.44%
CCN(CC)CCOc1ccc(C(O)(Cc2ccc(Cl)cc2)c2ccc(C)cc2)cc1 (configuration not stated) -14.4%
Cc1cc(Nc2cccc(F)c2)n2nc(-c3ccco3)nc2n1 -8.27%
CCC(=O)N1CCc2cc(CNS(=O)(=O)c3ccc(Cl)s3)ccc21 -7%
Cc1cccc(CN2C(=O)c3ccccc3Sc3ccc(C(=O)NCCc4ccccc4)cc32)c1 -14.3%
Cc1ccc(Cl)cc1NC(=O)N1CCc2cc(S(=O)(=O)N3CCC(C)CC3)ccc21 -16.7%
O=C(Nc1nnc2n1CCS2)c1ccccc1 -0.737%
Cc1cccc(-n2ncc3c(N4CCN(CCO)CC4)ncnc32)c1 -13%
